The list shows a part of the results. Values were computed here from the reads of four pooled replicates and scatter widely.
Biological target: T1, Pho4 (S. cerevisiae) (UniProt P07270)
T1 sequence: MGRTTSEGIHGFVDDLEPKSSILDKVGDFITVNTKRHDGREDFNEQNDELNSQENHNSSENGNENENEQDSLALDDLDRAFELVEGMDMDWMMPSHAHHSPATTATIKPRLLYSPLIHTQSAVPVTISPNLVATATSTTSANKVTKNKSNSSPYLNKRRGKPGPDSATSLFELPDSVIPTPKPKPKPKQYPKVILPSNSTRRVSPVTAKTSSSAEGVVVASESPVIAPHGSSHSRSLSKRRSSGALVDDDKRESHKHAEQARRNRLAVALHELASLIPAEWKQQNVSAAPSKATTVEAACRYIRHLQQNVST
Assay: relative binding free energy (BET-seq); higher = weaker binding
Conditions: reference: library average

Row | Sequence | relative binding free energy
1 | TGAGTCACGTGGTACT | 0.01 kcal/mol
2 | GTTTCCACGTGGTTGT | 0.19 kcal/mol
3 | ATGTACACGTGGCAGG | -0.05 kcal/mol
4 | ATCTGCACGTGTAATG | 0.15 kcal/mol
5 | AAAAACACGTGTGGTT | 0.15 kcal/mol
6 | TATTTCACGTGCGAGT | 0.13 kcal/mol
7 | GAAAGCACGTGGGGGC | -0.02 kcal/mol
8 | AGGGTCACGTGGTGAA | -0.01 kcal/mol
9 | TCTGTCACGTGTGGCG | 0 kcal/mol
10 | GTGTTCACGTGGCGCG | 0.09 kcal/mol
11 | GTCCGCACGTGGGTTG | -0.19 kcal/mol
12 | TGATGCACGTGTGAAG | 0.01 kcal/mol
13 | TAGGGCACGTGGGCAG | -0.24 kcal/mol
14 | TTTATCACGTGGGTGG | 0.01 kcal/mol
15 | TTTGACACGTGTATCT | 0.02 kcal/mol
16 | GTTTGCACGTGGTCTG | 0.02 kcal/mol
17 | GGCGGCACGTGCGAGT | 0.03 kcal/mol
18 | TGTAACACGTGAGGCT | 0.19 kcal/mol
19 | ATTGGCACGTGGCAAA | -0.05 kcal/mol
20 | TTTGGCACGTGTCGGA | -0.09 kcal/mol
21 | TTGTGCACGTGGGGCG | -0.1 kcal/mol
22 | AGTGTCACGTGTGTTC | 0.12 kcal/mol
23 | ATGTACACGTGCTATG | -0.06 kcal/mol

Row | Sequence | relative binding free energy
24 | AATTTCACGTGGCGTA | 0.11 kcal/mol
25 | GATTGCACGTGTGTAC | 0.05 kcal/mol
26 | CTGGTCACGTGTTGGG | 0.2 kcal/mol
27 | CGGTTCACGTGTCAGG | 0.37 kcal/mol
28 | TAGTCCACGTGTAGGG | 0.09 kcal/mol
29 | TTGATCACGTGGGTCG | 0.1 kcal/mol
30 | AATTACACGTGTGGGT | 0.16 kcal/mol
31 | TGCTTCACGTGTTGTA | 0.2 kcal/mol
32 | TATAGCACGTGTTTTA | -0.03 kcal/mol
33 | CATTGCACGTGGTGTT | -0.07 kcal/mol
34 | GTTAGCACGTGTGAGC | 0.02 kcal/mol
35 | GCCTGCACGTGGTGTT | -0.07 kcal/mol
36 | CTAGCCACGTGGAGGT | 0 kcal/mol
37 | ATTGACACGTGGTAGT | 0.02 kcal/mol
38 | TGTTTCACGTGATTCA | 0.29 kcal/mol
39 | TGGAACACGTGTTTGA | 0.07 kcal/mol
40 | CGGAGCACGTGGGGGG | -0.25 kcal/mol
41 | AGAAGCACGTGGGCGG | -0.26 kcal/mol
42 | GAGATCACGTGTTTTG | 0.12 kcal/mol
43 | TTTGTCACGTGGTGCC | -0.01 kcal/mol
44 | GATTGCACGTGGTGAA | 0.05 kcal/mol
45 | TGTTTCACGTGACGGG | 0.26 kcal/mol
46 | TAAGGCACGTGTCGTG | -0.04 kcal/mol

Row | Sequence | relative binding free energy
47 | GTGGGCACGTGTTGTA | 0.01 kcal/mol
48 | GGTTGCACGTGATGCG | 0.14 kcal/mol
49 | TATCGCACGTGTCTTG | 0.05 kcal/mol
50 | ACTTTCACGTGGCTGT | 0.26 kcal/mol
51 | CATGTCACGTGTTCGG | 0.1 kcal/mol
52 | TGTGACACGTGTAGAA | -0.03 kcal/mol
53 | TTTGGCACGTGAATGT | 0.2 kcal/mol
54 | TTAGCCACGTGTTTGG | -0.06 kcal/mol
55 | GCTCACACGTGTGGTT | 0.15 kcal/mol
56 | TTTATCACGTGGTCCT | 0.15 kcal/mol
57 | AGGAGCACGTGACGTG | 0.15 kcal/mol
58 | CGGAGCACGTGGGGAG | -0.18 kcal/mol
59 | GTAGTCACGTGGTGGT | 0.1 kcal/mol
60 | TGGTGCACGTGTAGAG | 0.13 kcal/mol
61 | TGTGACACGTGGGTTC | -0.18 kcal/mol
62 | AAGTTCACGTGGCGTC | 0.29 kcal/mol
63 | GGTTTCACGTGGTAGC | 0.22 kcal/mol
64 | TGATACACGTGAGAGT | 0.15 kcal/mol
65 | TGCTTCACGTGGGGAA | 0.12 kcal/mol
66 | ATTAGCACGTGAAAGT | 0.09 kcal/mol
67 | GTTATCACGTGTGTGT | 0.19 kcal/mol
68 | TAGTTCACGTGGGTCT | 0.28 kcal/mol
69 | GCTCGCACGTGGTGTA | -0.14 kcal/mol

Row | Sequence | relative binding free energy
70 | TTTACCACGTGTATAG | -0.01 kcal/mol
71 | TCGTGCACGTGGTGTC | -0.13 kcal/mol
72 | GGGTACACGTGTAGCT | 0.21 kcal/mol
73 | TTTGGCACGTGAGTGC | 0.19 kcal/mol
74 | TGTCTCACGTGTTTGA | 0.24 kcal/mol
75 | GAGGTCACGTGTTTGT | 0.12 kcal/mol
76 | TGGAACACGTGGATGG | 0.09 kcal/mol
77 | GGTACCACGTGGCGGA | -0.03 kcal/mol
78 | ACTCGCACGTGAGGGG | 0.02 kcal/mol
79 | CGTTTCACGTGCTGTG | 0.19 kcal/mol
80 | TTAGGCACGTGTTATC | -0.15 kcal/mol
81 | GAATTCACGTGTTGGC | 0.27 kcal/mol
82 | TGGAACACGTGGCGTA | 0.07 kcal/mol
83 | AATAGCACGTGTGCGT | -0.21 kcal/mol
84 | GGGAGCACGTGTTCAG | -0.01 kcal/mol
85 | TACGTCACGTGTTTTG | 0.02 kcal/mol
86 | CGAAGCACGTGGGGTA | -0.33 kcal/mol
87 | GCTTGCACGTGAGTCG | 0.43 kcal/mol
88 | AGGTGCACGTGGTAAG | -0.08 kcal/mol
89 | GTGTGCACGTGGCTAT | -0.08 kcal/mol
90 | GATTACACGTGATCGG | 0.21 kcal/mol
91 | TTAATCACGTGTCAGT | 0.07 kcal/mol
92 | GTTCTCACGTGTAGTT | 0.34 kcal/mol

Row | Sequence | relative binding free energy
93 | ATTGGCACGTGGAAAT | 0.03 kcal/mol
94 | GTGATCACGTGGGTGT | 0.07 kcal/mol
95 | ATTCACACGTGGGTGG | -0.07 kcal/mol
96 | GACGTCACGTGGGCGG | 0.02 kcal/mol
97 | GTGTTCACGTGGGCGC | 0.14 kcal/mol
98 | AGAGCCACGTGTGGGG | -0.22 kcal/mol
99 | TTTGTCACGTGGTAGC | 0.1 kcal/mol
100 | TCTGGCACGTGATCGG | -0.01 kcal/mol
101 | GGTTTCACGTGGGTTT | 0.38 kcal/mol
102 | TTTAGCACGTGTCGGC | -0.03 kcal/mol
103 | TTAAACACGTGGTGCG | -0.11 kcal/mol
104 | TGGTACACGTGCTTAG | -0.1 kcal/mol
105 | TCGTTCACGTGATTAT | 0.22 kcal/mol
106 | TATGCCACGTGGAATG | 0.11 kcal/mol
107 | GGATGCACGTGTGAGT | 0.19 kcal/mol
108 | TTTCGCACGTGTGGAA | 0.21 kcal/mol
109 | GGTCGCACGTGGTGTA | -0.11 kcal/mol
110 | TTTGGCACGTGGTCAC | -0.13 kcal/mol
111 | TTGGTCACGTGTTTCT | 0.18 kcal/mol
112 | GGGCGCACGTGGTCGG | -0.11 kcal/mol
113 | TGGTACACGTGTATTT | 0.05 kcal/mol
114 | ATGGGCACGTGGCGTC | -0.38 kcal/mol
115 | TGTGGCACGTGTGCAT | -0.13 kcal/mol

Source: the BET-seq Pho4 binding data (Le et al. 2018)
